Assay results reported in the supplement of paper PMC10369915.
This is one part of the list. Cut-off read from the data, not from the text of the source: active = 3.2 or more and inactive = the rest. Most of these values are background signal.

Biological target: SHP2 C-SH2 domain E139D
Experiment: enrichment score (SH2-bound / input frequency) (ratio); bacterial display of known human phosphotyrosine sites (pTyr-Var adds point mutants) read by sequencing; higher = stronger binding; tyrosines were phosphorylated by kinases first
Details: peptide library: pTyr-Var
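Note: displayed peptides selected on beads carrying the immobilized SH2 domain, with library peptides lacking any tyrosine serving as negative controls.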

Enrichment score, inactive:
EEKKKYYDTKI [CASP5_Y103] 0.94, LDFPEYDGVDR [CASQ1_Y43] 0.763, QFKGKYLAKHN [CASK_Y712_D710G_YF] 1.12, LDFPEYNGVDR [CASQ1_Y43_D44N] 0.613, EKKKFYDAKIE [CASP5_Y104_T106A_YF] 0.608, VTQEPYELYCE [CBL_Y368_Q367P] 0.724, KVGNGYISAAE [CALM2_Y100_D96V] 0.884, HGQVNYEEFVQ [CALM2_Y139_D134H] 1.19, MPIPMYDASQA [CARMIL1_Y637] 0.906, SEDSEYYKAFE [CASQ2_Y178] 0.521, IKAGAYDFPSL [CAMK2A_Y230_P235L] 1.09, DGQVNYEELVQ [CALM1_Y139_F142L] 0.461, SEDSEYYRAFE [CASQ2_Y178_K180R] 0.747, KKKKQYKDKFL [CASK_Y708_YF] 0.362, ARVANYQRDGP [CAT_Y386] 0.265, CPSLPYSPVSS [CAMKK2_Y128] 0.792, EDSEYYRAFEE [CASQ2_Y179_K180R] 0.416, EQYELYCEMGS [CBL_Y371] 0.852, QFKDKYLAKHN [CASK_Y712_YF] 0.845

Biological target: SHP2 C-SH2 domain wild-type
Experiment: as above
Details: peptide library: pTyr-Var

Enrichment score, inactive:
EEKKKYYDTKI [CASP5_Y103] 0.792, LDFPEYDGVDR [CASQ1_Y43] 0.823, QFKGKYLAKHN [CASK_Y712_D710G_YF] 1.01, LDFPEYNGVDR [CASQ1_Y43_D44N] 0.663, EKKKFYDAKIE [CASP5_Y104_T106A_YF] 0.975, VTQEPYELYCE [CBL_Y368_Q367P] 0.594, KVGNGYISAAE [CALM2_Y100_D96V] 0.592, HGQVNYEEFVQ [CALM2_Y139_D134H] 0.896, MPIPMYDASQA [CARMIL1_Y637] 0.936, SEDSEYYKAFE [CASQ2_Y178] 0.698, IKAGAYDFPSL [CAMK2A_Y230_P235L] 0.873, DGQVNYEELVQ [CALM1_Y139_F142L] 0.719, SEDSEYYRAFE [CASQ2_Y178_K180R] 0.73, KKKKQYKDKFL [CASK_Y708_YF] 0.426, ARVANYQRDGP [CAT_Y386] 0.391, CPSLPYSPVSS [CAMKK2_Y128] 0.723, EDSEYYRAFEE [CASQ2_Y179_K180R] 0.742, EQYELYCEMGS [CBL_Y371] 0.888, QFKDKYLAKHN [CASK_Y712_YF] 1.11

Biological target: SHP2 N-SH2 domain L43F
Experiment: as above
Details: peptide library: pTyr-Var

Enrichment score, inactive:
EEKKKYYDTKI [CASP5_Y103] 0.582, LDFPEYDGVDR [CASQ1_Y43] 0.93, QFKGKYLAKHN [CASK_Y712_D710G_YF] 1.04, LDFPEYNGVDR [CASQ1_Y43_D44N] 0.645, EKKKFYDAKIE [CASP5_Y104_T106A_YF] 0.744, VTQEPYELYCE [CBL_Y368_Q367P] 0.626, KVGNGYISAAE [CALM2_Y100_D96V] 0.647, HGQVNYEEFVQ [CALM2_Y139_D134H] 0.92, MPIPMYDASQA [CARMIL1_Y637] 0.874, SEDSEYYKAFE [CASQ2_Y178] 0.606, IKAGAYDFPSL [CAMK2A_Y230_P235L] 1.14, DGQVNYEELVQ [CALM1_Y139_F142L] 0.592, SEDSEYYRAFE [CASQ2_Y178_K180R] 0.509, KKKKQYKDKFL [CASK_Y708_YF] 0.3, ARVANYQRDGP [CAT_Y386] 0.332, CPSLPYSPVSS [CAMKK2_Y128] 0.678, EDSEYYRAFEE [CASQ2_Y179_K180R] 0.478, EQYELYCEMGS [CBL_Y371] 0.895, QFKDKYLAKHN [CASK_Y712_YF] 0.675

Biological target: SHP2 N-SH2 domain T42A
Experiment: as above
Details: peptide library: pTyr-Var

Enrichment score, inactive:
EEKKKYYDTKI [CASP5_Y103] 1.05, LDFPEYDGVDR [CASQ1_Y43] 0.496, QFKGKYLAKHN [CASK_Y712_D710G_YF] 1.03, LDFPEYNGVDR [CASQ1_Y43_D44N] 0.627, EKKKFYDAKIE [CASP5_Y104_T106A_YF] 0.853, VTQEPYELYCE [CBL_Y368_Q367P] 0.524, KVGNGYISAAE [CALM2_Y100_D96V] 0.737, HGQVNYEEFVQ [CALM2_Y139_D134H] 1.04, MPIPMYDASQA [CARMIL1_Y637] 0.806, SEDSEYYKAFE [CASQ2_Y178] 0.595, IKAGAYDFPSL [CAMK2A_Y230_P235L] 0.925, DGQVNYEELVQ [CALM1_Y139_F142L] 0.513, SEDSEYYRAFE [CASQ2_Y178_K180R] 0.552, KKKKQYKDKFL [CASK_Y708_YF] 0.355, ARVANYQRDGP [CAT_Y386] 0.306, CPSLPYSPVSS [CAMKK2_Y128] 0.689, EDSEYYRAFEE [CASQ2_Y179_K180R] 0.383, EQYELYCEMGS [CBL_Y371] 0.888, QFKDKYLAKHN [CASK_Y712_YF] 3.12

Biological target: SHP2 N-SH2 domain T52S
Experiment: as above
Details: peptide library: pTyr-Var

Enrichment score, inactive:
EEKKKYYDTKI [CASP5_Y103] 1.04, LDFPEYDGVDR [CASQ1_Y43] 0.85, QFKGKYLAKHN [CASK_Y712_D710G_YF] 1.3, LDFPEYNGVDR [CASQ1_Y43_D44N] 0.704, EKKKFYDAKIE [CASP5_Y104_T106A_YF] 0.766, VTQEPYELYCE [CBL_Y368_Q367P] 0.645, KVGNGYISAAE [CALM2_Y100_D96V] 0.672, HGQVNYEEFVQ [CALM2_Y139_D134H] 1, MPIPMYDASQA [CARMIL1_Y637] 1.04, SEDSEYYKAFE [CASQ2_Y178] 0.521, IKAGAYDFPSL [CAMK2A_Y230_P235L] 0.84, DGQVNYEELVQ [CALM1_Y139_F142L] 0.657, SEDSEYYRAFE [CASQ2_Y178_K180R] 0.604, KKKKQYKDKFL [CASK_Y708_YF] 0.357, ARVANYQRDGP [CAT_Y386] 0.174, CPSLPYSPVSS [CAMKK2_Y128] 0.762, EDSEYYRAFEE [CASQ2_Y179_K180R] 0.666, EQYELYCEMGS [CBL_Y371] 0.689, QFKDKYLAKHN [CASK_Y712_YF] 1.16

Biological target: SHP2 N-SH2 domain wild-type
Experiment: as above
Details: peptide library: pTyr-Var

Enrichment score, inactive:
EEKKKYYDTKI [CASP5_Y103] 0.976, LDFPEYDGVDR [CASQ1_Y43] 0.815, QFKGKYLAKHN [CASK_Y712_D710G_YF] 0.908, LDFPEYNGVDR [CASQ1_Y43_D44N] 0.793, EKKKFYDAKIE [CASP5_Y104_T106A_YF] 0.784, VTQEPYELYCE [CBL_Y368_Q367P] 0.774, KVGNGYISAAE [CALM2_Y100_D96V] 0.976, HGQVNYEEFVQ [CALM2_Y139_D134H] 1.31, MPIPMYDASQA [CARMIL1_Y637] 0.938, SEDSEYYKAFE [CASQ2_Y178] 0.899, IKAGAYDFPSL [CAMK2A_Y230_P235L] 1.02, DGQVNYEELVQ [CALM1_Y139_F142L] 0.652, SEDSEYYRAFE [CASQ2_Y178_K180R] 0.695, KKKKQYKDKFL [CASK_Y708_YF] 0.348, ARVANYQRDGP [CAT_Y386] 0.309, CPSLPYSPVSS [CAMKK2_Y128] 0.9, EDSEYYRAFEE [CASQ2_Y179_K180R] 0.81, EQYELYCEMGS [CBL_Y371] 1.05, QFKDKYLAKHN [CASK_Y712_YF] 1.5
